Experimental data as given in the supplement of paper PMC4967469.

Columns and labels:
Assay in all cases: Viability of human cancer cell lines after 72 h of drug (GDSC screen)
[1] = compound: CC1(C)CCC(c2ccc(Cl)cc2)=C(CN2CCN(c3ccc(C(=O)NS(=O)(=O)c4ccc(N[C@H](CCN5CCOCC5)CSc5ccccc5)c(S(=O)(=O)C(F)(F)F)c4)cc3)CC2)C1 [ABT-263]; details: top dose 2 µM; top dose inferred
Experimental: (§1)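 Human cancer cell lines in 384-well plates, medium with 10% serum, drug for 72 h over a 256-fold dose range (nine 2-fold or five 4-fold steps up to the top dose). Adherent lines were fixed and stained with the nucleic acid dye Syto60, suspension lines read with resazurin; signal relative to control wells, capped at 0 and 100%. One two-parameter sigmoid per drug and line, fitted in a mixed model over all curves with the slope shared within a line.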

[2] = compound: Cn1cc(/C=C2\C(=O)Nc3cccnc32)c2ccccc21 [GW 441756]; details: top dose 2 µM; top dose inferred
Experimental: as §1

[3] = compound: CC(=O)Nc1nc(C)c(-c2ccc(Cl)c(S(=O)(=O)NCCO)c2)s1 [PIK-93]; details: top dose 20 µM
Experimental: as §1

[4] = compound: COc1cc(/C=C/C(=O)N2CCC=CC2=O)cc(OC)c1OC [piperlongumine]; details: top dose 10 µM
Experimental: as §1

CFPAC-1 (pancreas, adherent)
AUC [1]: 0.95
IC50 [1]: > 2000 nM
AUC [2]: 0.968
IC50 [2]: > 2000 nM
AUC [3]: 0.928
IC50 [3]: > 20000 nM
AUC [4]: 0.753
IC50 [4]: 3790 nM

CCK-81 (large intestine, adherent)
AUC [1]: 0.989
IC50 [1]: > 2000 nM
AUC [2]: 0.99
IC50 [2]: > 2000 nM
AUC [3]: 0.854
IC50 [3]: 14400 nM
AUC [4]: 0.984
IC50 [4]: > 10000 nM

NCI-H1693 (lung adenocarcinoma, adherent)
AUC [1]: 0.924
IC50 [1]: > 2000 nM
AUC [2]: 0.942
IC50 [2]: > 2000 nM
AUC [3]: 0.82
IC50 [3]: > 20000 nM
AUC [4]: 0.653
IC50 [4]: 2150 nM

NCI-H1048 (small cell lung carcinoma, adherent)
AUC [1]: 0.729
IC50 [1]: 516 nM
AUC [2]: 0.987
IC50 [2]: > 2000 nM
AUC [3]: 0.224
IC50 [3]: 219 nM
AUC [4]: 0.842
IC50 [4]: 6010 nM

SiHa (cervix, adherent)
AUC [1]: 0.982
IC50 [1]: > 2000 nM
AUC [2]: 0.888
IC50 [2]: > 2000 nM
AUC [3]: 0.987
IC50 [3]: > 20000 nM
AUC [4]: 0.709
IC50 [4]: 2690 nM

SKN (uterus, adherent)
AUC [1]: 0.936
IC50 [1]: > 2000 nM
AUC [2]: 0.928
IC50 [2]: > 2000 nM
AUC [3]: 0.981
IC50 [3]: > 20000 nM
AUC [4]: 0.68
IC50 [4]: 2240 nM

RCC-FG2 (kidney, adherent)
AUC [1]: 0.901
IC50 [1]: > 2000 nM
AUC [2]: 0.86
IC50 [2]: > 2000 nM
AUC [3]: 0.872
IC50 [3]: > 20000 nM
AUC [4]: 0.784
IC50 [4]: 5550 nM

MES-SA (uterus, adherent)
AUC [1]: 0.992
IC50 [1]: > 2000 nM
AUC [2]: 0.963
IC50 [2]: > 2000 nM
AUC [3]: 0.992
IC50 [3]: > 20000 nM
AUC [4]: 0.823
IC50 [4]: 4790 nM

LC-1-sq (lung squamous cell carcinoma, adherent)
AUC [1]: 0.873
IC50 [1]: > 2000 nM
AUC [2]: 0.943
IC50 [2]: > 2000 nM
AUC [3]: 0.898
IC50 [3]: > 20000 nM
AUC [4]: 0.967
IC50 [4]: > 10000 nM

OACM5-1 (oesophagus, semi-adherent)
AUC [1]: 0.953
IC50 [1]: > 2000 nM
AUC [2]: 0.986
IC50 [2]: > 2000 nM
AUC [3]: 0.388
IC50 [3]: 589 nM
AUC [4]: 0.852
IC50 [4]: 9320 nM

CHSA0108 (chondrosarcoma, adherent)
AUC [1]: 0.963
IC50 [1]: > 2000 nM
AUC [2]: 0.981
IC50 [2]: > 2000 nM
AUC [3]: 0.888
IC50 [3]: > 20000 nM
AUC [4]: 0.79
IC50 [4]: 5250 nM

OV-90 (ovary, adherent)
AUC [1]: 0.765
IC50 [1]: 937 nM
AUC [2]: 0.956
IC50 [2]: > 2000 nM
AUC [3]: 0.945
IC50 [3]: > 20000 nM
AUC [4]: 0.862
IC50 [4]: > 10000 nM

OAW-42 (ovary, adherent)
AUC [1]: 0.796
IC50 [1]: 1020 nM
AUC [2]: 0.977
IC50 [2]: > 2000 nM
AUC [3]: 0.801
IC50 [3]: 10700 nM
AUC [4]: 0.705
IC50 [4]: 2500 nM

NCI-H2405 (lung adenocarcinoma, adherent)
AUC [1]: 0.898
IC50 [1]: > 2000 nM
AUC [2]: 0.982
IC50 [2]: > 2000 nM
AUC [3]: 0.919
IC50 [3]: > 20000 nM
AUC [4]: 0.746
IC50 [4]: 3460 nM

KP-2 (pancreas, adherent)
AUC [1]: 0.727
IC50 [1]: 586 nM
AUC [2]: 0.986
IC50 [2]: > 2000 nM
AUC [3]: 0.909
IC50 [3]: > 20000 nM
AUC [4]: 0.783
IC50 [4]: 4570 nM

LS-180 (large intestine, adherent)
AUC [1]: 0.936
IC50 [1]: > 2000 nM
AUC [2]: 0.886
IC50 [2]: > 2000 nM
AUC [3]: 0.898
IC50 [3]: > 20000 nM
AUC [4]: 0.892
IC50 [4]: > 10000 nM

JEG-3 (urogenital system, adherent)
AUC [1]: 0.981
IC50 [1]: > 2000 nM
AUC [2]: 0.99
IC50 [2]: > 2000 nM
AUC [3]: 0.991
IC50 [3]: > 20000 nM
AUC [4]: 0.749
IC50 [4]: 2980 nM

HCC1143 (breast, adherent)
AUC [1]: 0.95
IC50 [1]: > 2000 nM
AUC [2]: 0.972
IC50 [2]: > 2000 nM
AUC [3]: 0.72
IC50 [3]: 6870 nM
AUC [4]: 0.777
IC50 [4]: 5780 nM

NCI-H1563 (lung adenocarcinoma, adherent)
AUC [1]: 0.942
IC50 [1]: > 2000 nM
AUC [2]: 0.826
IC50 [2]: 1530 nM
AUC [3]: 0.739
IC50 [3]: 7000 nM
AUC [4]: 0.845
IC50 [4]: 9310 nM

CAL-51 (breast, adherent)
AUC [1]: 0.99
IC50 [1]: > 2000 nM
AUC [2]: 0.991
IC50 [2]: > 2000 nM
AUC [3]: 0.989
IC50 [3]: > 20000 nM
AUC [4]: 0.576
IC50 [4]: 981 nM

SNU-61 (large intestine, adherent)
AUC [1]: 0.968
IC50 [1]: > 2000 nM
AUC [2]: 0.974
IC50 [2]: > 2000 nM
AUC [3]: 0.863
IC50 [3]: > 20000 nM
AUC [4]: 0.983
IC50 [4]: > 10000 nM

SKG-IIIa (cervix, adherent)
AUC [1]: 0.942
IC50 [1]: > 2000 nM
AUC [2]: 0.912
IC50 [2]: > 2000 nM
AUC [3]: 0.983
IC50 [3]: > 20000 nM
AUC [4]: 0.935
IC50 [4]: > 10000 nM

NCI-H727 (lung carcinoid, adherent)
AUC [1]: 0.871
IC50 [1]: > 2000 nM
AUC [2]: 0.974
IC50 [2]: > 2000 nM
AUC [3]: 0.942
IC50 [3]: > 20000 nM
AUC [4]: 0.847
IC50 [4]: > 10000 nM

EFO-27 (ovary, adherent)
AUC [1]: 0.96
IC50 [1]: > 2000 nM
AUC [2]: 0.967
IC50 [2]: > 2000 nM
AUC [3]: 0.905
IC50 [3]: > 20000 nM
AUC [4]: 0.794
IC50 [4]: 5970 nM

23132-87 (stomach, adherent)
AUC [1]: 0.971
IC50 [1]: > 2000 nM
AUC [2]: 0.933
IC50 [2]: > 2000 nM
AUC [3]: 0.764
IC50 [3]: 7540 nM
AUC [4]: 0.801
IC50 [4]: 5100 nM

SW48 (large intestine, adherent)
AUC [1]: 0.926
IC50 [1]: > 2000 nM
AUC [2]: 0.987
IC50 [2]: > 2000 nM
AUC [3]: 0.886
IC50 [3]: > 20000 nM
AUC [4]: 0.82
IC50 [4]: 5710 nM

FU97 (stomach, adherent)
AUC [1]: 0.98
IC50 [1]: > 2000 nM
AUC [2]: 0.952
IC50 [2]: > 2000 nM
AUC [3]: 0.89
IC50 [3]: > 20000 nM
AUC [4]: 0.76
IC50 [4]: 3620 nM

SU-DHL-5 (B-cell lymphoma, suspension)
AUC [1]: 0.993
IC50 [1]: > 2000 nM
AUC [2]: 0.994
IC50 [2]: > 2000 nM
AUC [3]: 0.381
IC50 [3]: 641 nM
AUC [4]: 0.587
IC50 [4]: 1020 nM

JHH-4 (liver, adherent)
AUC [1]: 0.86
IC50 [1]: 1670 nM
AUC [2]: 0.977
IC50 [2]: > 2000 nM
AUC [3]: 0.726
IC50 [3]: 5480 nM
AUC [4]: 0.792
IC50 [4]: 4510 nM

ESO51 (oesophagus, semi-adherent)
AUC [1]: 0.74
IC50 [1]: 827 nM
AUC [2]: 0.935
IC50 [2]: > 2000 nM
AUC [3]: 0.835
IC50 [3]: > 20000 nM
AUC [4]: 0.946
IC50 [4]: > 10000 nM

A lower IC50 marks a more sensitive line; a fit beyond the top or the lowest dose is shown as a bound at that dose. AUC sums up the same curve from the lowest dose to the 256-fold higher top dose; it is 1 without any effect and falls as sensitivity rises. For part of these data: Where the top dose is marked as inferred, it comes from the curve model; the source does not state it.
